Laboratory results reported in PubChem BioAssay AID1508623 (National Center for Advancing Translational Sciences (NCATS), 2021).
The whole screen tested about 48,000 compounds, of which about 450 (0.94%) were called active. Inconclusive results (about 19%) are left out. Calls follow the shape of the dose curve; as a rule, active = well fitted inhibition curve with a large enough effect; inconclusive = small, poorly fitted or top-dose-only effect; inactive = no such curve, though single readings can be large or run the other way. The list shows a part of the results.

Assay: Primary qHTS for Identification of Small Molecule Inhibitors of Huntingtin Promoter Activity; also: nearly all actives have a fitted effect of over 50% in size
Settings: HEK293 HTT promoter firefly luciferase reporter (activity 0% = vehicle and -100% = no light), 24 h; series mostly up to 57.5 µM; activity change, negative = inhibition: at the top concentration
In short: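 Firefly luciferase signal from promoter-reporter HEK293 cells was scaled between vehicle (0%) and zero RLU (-100%). Compounds were tested at final concentrations of up to 57.5 uM over 24 h at 37 degrees C. PTC124 at 50 uM final served as control inhibitor.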

SMILES	activity change, negative = inhibition
CCC1CCCCN1C(=O)CCS(=O)(=O)c1cc2c(cc1C)NC(=O)CO2 (stereo not drawn)	inactive: -5.8%
O=c1c2oc3ccccc3c2n(Cc2ccc(Cl)cc2)c(=O)n1Cc1ccccc1	inactive: -16%
CC=CCC=CCCC(=O)[C@H]1O[C@@H]1C(N)=O	inactive: 6.54%
Cc1ccc(Nc2c(-c3ccc(C)o3)nc3cccc(C)n23)cc1	inactive: 10.2%
Cc1cc(C)cc(-n2c(SCC(=O)N3CCCCCC3)nc3c([nH]c4ccccc43)c2=O)c1	inactive: -15.2%
O=C(Nc1cc(F)ccc1F)c1ccc(CN2CC(=O)N3CCCCC3C2=O)cc1 (stereo not drawn)	inactive: -23.2%
COc1ccc(-c2cc(=O)oc3c4c(ccc23)OCN(Cc2ccccc2)C4)cc1	inactive: -21.2%
COc1cc(Cl)c(C)cc1NC(=O)Cn1c(C)c2cnn(-c3ccccc3)c(=O)c2c1C	inactive: -7.53%
C=C(C)Cn1c(SCC(=O)c2ccccc2)nc2sc3c(c2c1=O)CCCC3	inactive: -17%
CC(=O)Nc1c(C)nn(-c2ccccc2)c1N1CCC(C(=O)NCc2ccc(F)cc2)CC1	inactive: -10.8%
CC(=O)c1ccc(NC(=O)CSc2nnc(N)s2)cc1	inactive: 9.15%
CCOCCn1c(N2CCCN(C)CC2)nc2ccccc21	inactive: -1.71%
COc1cc2c(cc1NC(=O)COc1ccc(Cl)cc1)oc1ccccc12	inactive: -6.86%
COc1ccc(NC(=O)Cn2c(=O)n(Cc3ccco3)c(=O)c3oc4ccccc4c32)cc1Cl	inactive: -5.88%
COc1ccc(-n2ncc3c2ncn2nc(Cc4ccccc4)nc32)cc1	inactive: -17.8%
Cc1ccccc1CNCc1c(C(=O)O)c(C)n(Cc2ccc(F)cc2Cl)c1C	inactive: -13.6%
Cc1cccn2c(=O)c(-c3nnn[nH]3)cnc12	inactive: -7.21% [at 25.2 µM]
Cc1nnc(N2CCC(C(=O)NC(C)C)CC2)c2nn(-c3ccccc3)c(C)c12	inactive: -5.84%
Cc1ccc(-c2noc(-c3nnn(-c4ccc(Br)cc4F)c3C)n2)cc1	inactive: 8.42%
O=C(Nc1ccc(F)cc1)c1cc2cc3ccc(Cl)cc3nc2o1	inactive: -3.79%
CCc1c(C)sc2c1CCN(C(=O)Nc1cc(C)ccc1C)C2c1ccc(OC)cc1 (stereo not drawn)	inactive: -27.5%
COc1ccc(-n2ncc(C(=O)NCCN3CCOCC3)c2C2CCN(C(=O)OC(C)(C)C)CC2)cc1	inactive: 2.88%
COc1ccc(OC)c(CCNC(=O)Cn2nc(C)n3c(cc4sccc43)c2=O)c1	inactive: 3.8%
CC[C@H](C)C(=O)O[C@H]1C[C@H](O)C=C2C=C[C@H](C)[C@H](CC[C@@H](O)C[C@@H](O)CC(=O)O)[C@H]21	inactive: 6.2%

SMILES	activity change, negative = inhibition
COc1cc(OC)c(NC(=O)N2CCc3cc(S(=O)(=O)N4CCC(C)CC4)ccc32)cc1Cl	inactive: -15.5%
O=c1oc2ccc3ccccc3c2cc1-c1nnc(Nc2cccc(C(F)(F)F)c2)s1	inactive: 18.4%
CCc1ccc(C=C2SC(=S)NC2=O)cc1	inactive: 29.9%
O=C(c1cc2c(s1)-c1ccccc1OC2)N1CCN(c2ccc(F)cc2)CC1	inactive: -23.9%
CC1CCC(NC(=O)Cn2ncc3c4ccccc4n(Cc4ccc(F)cc4)c3c2=O)CC1 (stereo not drawn)	inactive: -9.41%
Cc1ccc(CN(C(=O)COc2ccc([N+](=O)[O-])cc2)c2ccccn2)o1	inactive: -28.5%
Cc1ccc(Nc2ncc(C(=O)Nc3ccc(F)cc3F)c3ccccc23)cc1Cl	inactive: -13%
CC(=O)c1ccc(NC(=O)CSc2ccc3nnc(CCNS(=O)(=O)c4ccc(C)cc4)n3n2)cc1	inactive: 0.315%
CC(=O)c1cccc(NC(=O)C2CCN(S(=O)(=O)c3ccccc3)CC2)c1	inactive: -22.1%
COc1ccc(CNC(=O)c2nn(C)c3c2CS(=O)(=O)c2ccccc2-3)cc1	inactive: -11.2%
O=C(COc1ccccc1)Nc1nnc(SCc2cc(=O)n3cc(Cl)ccc3n2)s1	inactive: 8.14%
CC1=C(C(=O)O)N2C(=O)[C@@H](NC(=O)[C@H](N)c3ccccc3)[C@H]2SC1	inactive: 14.7%
COc1ccc(CCNC(=O)CCS(=O)(=O)c2cc3c(cc2Cl)NC(=O)CO3)cc1OC	inactive: 5.72%
CCc1nnc(SCC(=O)Nc2cccc(C(F)(F)F)c2)c2cc3oc(C)cc3n12	inactive: -27.9%
CCOC(=O)Cc1c(C)nc2c(-c3ccc(Cl)cc3)c(C(F)(F)F)nn2c1C	inactive: -28.5%
Cc1oc(-c2ccccc2Cl)nc1CS(=O)(=O)CC(=O)NC(C)c1ccccc1 (stereo not drawn)	inactive: -26.9%
Cc1ccc2onc(CNC(=O)NCc3ccccc3)c2c1	inactive: 7.74%
CCC(C(=O)Nc1ccccc1OC)n1c(C(=O)OC)cc2sc(Cl)cc21 (stereo not drawn)	inactive: -29.8%
CCOCCCNC(=O)c1ccc2c(=O)n(CCc3ccc(OC)c(OC)c3)c(=O)[nH]c2c1	inactive: -22.2%
CC(=O)N1CCc2cc(S(=O)(=O)NC(CC(C)C)C(=O)NCCc3cccc(C)c3)ccc21 (stereo not drawn)	inactive: -5.37%
CCOc1ccccc1CNC(=O)CSc1nnc(C)c2c(C)n(-c3ccccc3)nc12	inactive: -12.8%
Cc1ccc(NC(=O)CC2Oc3ccccc3NC2=O)cc1C (stereo not drawn)	inactive: 0.965%
Cc1c(C(=O)NCc2cccc(Cl)c2)sc2nc3n(c(=O)c12)CCCC3	inactive: 20.1%
COc1ccc(CCNC(=O)CN2C(=O)COc3ccc(S(=O)(=O)N4CCCC4)cc32)c(OC)c1	inactive: -27%
